Reference: PubChem BioAssay AID540317 (National Center for Advancing Translational Sciences (NCATS), 2011)
Among all 390,000 compounds or so, about 2,200 (0.56%) were called active. The inconclusive results got no clear call from the source; some entries with a clear call stand among them for comparison. Calls come from the whole dose curve; as a rule, active = well fitted inhibition curve with a large enough effect; inconclusive = small, poorly fitted or top-dose-only effect; inactive = no such curve, though single readings can be large or run the other way. Where the call is inconclusive, the potency comes from a doubtful curve fit.

target: Chromobox protein homolog 1 (Homo sapiens) (UniProt P83916); assay: HTS for Inhibitors of HP1-beta Chromodomain Interactions with Methylated Histone Tails; conditions: AlphaScreen HP1-beta / biotin-H3K9me3 peptide binding; series mostly up to 114 µM; activity change, negative = inhibition: at the top concentration; note: nearly all actives have a fitted effect of over 70% in size
Source text: As our understanding of epigenetics expands, it is becoming clear that players in this field are potential targets for drug development. This area of epigenetic therapy has established applications for the treatment of cancer and neurological diseases. We have been involved in this field for a number of years and have performed high-throughput screens to identify the first small molecule inhibitors of protein methyltransferases. These methyltransferases target multiple substrates, and thus regulate many arms of an epigenetic pathway. The methylation of different substrates often generates docking sites for effector proteins that harbor binding domains (chromo, tudor, PHD, MBT and ANK repeats). It has been proposed that the binding sites generated for different proteins by these post-translational modifcations mediate downstream effects on chromatin. Consistent with this theory, di- and tri-methylation of histone H3K9 facilitates the binding of heterochromatin protein HP1. The HP1 protein harbors a chromodomain that is responsible for the methyl-dependent interaction between HP1 and lysine 9 of histone H3. HP1 was first described in flies as a heterochromatin associated protein that can regulate gene silencing. It harbors a chromodomain that binds H3K9me3. In addition, it harbors a chromoshadow domain that interacts with a large number of proteins that are involved in heterochromatin formation and gene repression. There are three highly related HP1 isoforms. All three variants are associated with pericentric heterochromatin and it is not clear whether they have specific or redundant functions. MPP8 is also involved in the repression of gene in euchromatic regions (unpublished data) and like HP1 its chromodomain binds H3K9me3. MPP8 harbors an ankyrin repeat region that is likely involved in binding and recruiting interacting proteins with transcriptional repressive function, much like the chromoshadow domain of HP1 does. We hypothesize that by inhibiting specific protein-protein interactions we will be able to develop compounds that block a single arm of an epigenetic pathway. The specificity attained by blocking a single protein-protein interaction will be far greater than that attained by blocking the enzyme that regulates one of many interactions. Low-affinity protein-protein interactions (Kd in the single- to double-digit micromolar range) such as those discussed here have been very difficult to assay by traditional techniques such as fluorescence polarization or fluorescence resonance energy transfer. We have developed a sensitive chemiluminescence-based assay (Quinn, et al. 2009), which serves as the starting point for this project. The following is a validation assay to identify lead compounds that can block methyl-dependent protein-protein interactions (specifically HP1-beta), which can be used as probes to analyze these methyl-driven interactions and perhaps even developed into targeted epigenetic therapies. NIH Chemical Genomics Center [NCGC] NIH Molecular Libraries Probe Centers Network [MLPCN] MLPCN Grant: DA031087 Assay Submitter (PI): Mark Bedford, University of Texas, Medical Anderson Cancer Center, TX
To each well, 2 uL of HP1-beta protein (final 50 nM) and 1 uL biotinylated histone peptide trimethylated at Lys9 [b-H3(1-18)K9me3] (final 50 nM) was added in 1x PBS buffer, pH 7.4, containing 0.01% Tween-20 using a nanoliter dispenser. Formation of a protein-peptide complex proceeded at room temperature for 30 min. A Kalypsys pin-tool was employed to transfer 23 nL of library compound solution in DMSO to each well. Aurintricarboxylic acid (ATA) was used as an intraplate control with a 12-point titration in duplicate. Following a 30 min incubation of the protein-peptide complex with compounds at room temperature, a mixture of 40 ug/mL each streptavidin-coated donor and nickel chelate acceptor AlphaScreen beads (final 10 ug/mL) was added in a 1 uL dispense for a final volume of 4 uL. […]
Potency is the fitted concentration of half-maximal effect; tags give direction and shape of the fitted curve.

UniProt P83916, sequence (P83916 whole entry, looked up): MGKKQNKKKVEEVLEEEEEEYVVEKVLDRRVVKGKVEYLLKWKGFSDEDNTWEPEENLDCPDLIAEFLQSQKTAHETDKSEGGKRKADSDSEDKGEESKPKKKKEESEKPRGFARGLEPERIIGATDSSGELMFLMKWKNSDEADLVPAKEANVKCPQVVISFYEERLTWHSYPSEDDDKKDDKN

| Structure (SMILES) | Potency | activity change, negative = inhibition |
| --- | --- | --- |
| Fc1cccc(Cl)c1CSc1ccc(-c2ccco2)nn1 | inconclusive: 44.7 µM [inhibitor, partial curve] | – |
| O=C(C(c1ccccc1)c1ccccc1)N1CCN(Cc2ccco2)CC1 | inconclusive: 56.2 µM [inhibitor, partial curve, poor fit] | – |
| COc1ccc(N=C2O/C(=C/c3sc(=S)n(CC4CCCO4)c3O)N=C2C#N)cc1 (configuration not stated) | inconclusive: 25.1 µM [inhibitor, partial curve, poor fit] | – |
| COC(=O)C1=NN(c2ccccc2)C2(S1)SC(C(C)=O)=C(C)N2c1ccccc1 (configuration not stated) | inconclusive: 25.1 µM [inhibitor, single point] | – |
| COc1ccc2[nH]c(=O)c(CN(Cc3nnnn3Cc3ccco3)C3CCCCC3)cc2c1 | – | inactive: -26.2% |
| COc1ccc(C(=O)NCC(c2ccco2)N2CCc3ccccc32)cc1OC (configuration not stated) | inconclusive: 70.8 µM [inhibitor, partial curve] | – |
| CCCCN(CC)CCCNC(=O)Nc1sc2nc3n(c(=O)c2c1C)CCC(C)CC3 (configuration not stated) | – | inactive: 29.6% |
| Cc1cc(C)n2c(SCC(=O)Nc3ccc(F)cc3)nnc2n1 | inconclusive: 11.2 µM [inhibitor, partial curve, poor fit] | – |
| CC1CN(C(=S)NC(=O)c2cccc([N+](=O)[O-])c2)CC(C)O1 (configuration not stated) | – | inactive: 20.9% |
| CCOC(=O)CSc1nc2c(sc(=S)n2-c2ccccc2)c(=O)n1-c1ccc(OC)cc1OC | inconclusive: 25.1 µM [inhibitor, partial curve, poor fit] | – |
| CCCCNC(=O)c1cccc(-n2c(C)nc3cccnc32)c1 | – | inactive: 42.7% |
| Cc1cc(C)c2c(CC(=O)NC3CCS(=O)(=O)C3)coc2c1 (configuration not stated) | – | inactive: 53.7% |
| O=C1OC(c2cccs2)=N/C1=C\c1ccc(-c2ccccc2Cl)o1 | inconclusive: 50.1 µM [inhibitor, partial curve] | – |
| CC(C)C1Cc2c(C#N)c(N)sc(=S)c2CO1 (configuration not stated) | inconclusive: 50.1 µM [inhibitor, partial curve] | – |
| COc1cc(C(c2nnnn2C2CCCC2)N2CCc3ccccc3C2)ccc1O (configuration not stated) | inconclusive: 25.1 µM [inhibitor, partial curve, poor fit] | – |
| O=C(CN1C(=O)CCc2cc(S(=O)(=O)N3CCOCC3)ccc21)Nc1cccc(C(F)(F)F)c1 | – | inactive: -1.56% |
| O=C(NCCCc1ccccc1)N1CCOCC1 | – | inactive: 36.8% |
| COc1cccc2c(=S)c(CCC(C)=O)c(C)[nH]c12 | inconclusive: 70.8 µM [inhibitor, partial curve] | – |
| O=C(Cc1ccc(Br)cc1)Nc1ccccc1N1CCCC1 | – | inactive: -3.28% |
| COc1ccc(C(=O)NC(=S)NCc2ccco2)cc1Br | inconclusive: 44.7 µM [inhibitor, partial curve] | – |
| [O-]/C(=C(\C(=S)NCc1ccccc1)[n+]1ccccc1)c1ccc(Cl)s1 | inconclusive: 50.1 µM [inhibitor, single point] | – |
| Cc1ccccc1Nc1cc(C(=O)NCc2cccs2)c2ccccc2n1 | – | inactive: 62.6% |
| COc1ccccc1/C=C/c1nc(C#N)c(NCCc2ccccc2)o1 | inconclusive: 20 µM [inhibitor, partial curve, poor fit] | – |

| Structure (SMILES) | Potency | activity change, negative = inhibition |
| --- | --- | --- |
| COc1ccc(C)cc1N(C)C(=O)c1c2c(nc3ccccc13)C(=O)N(C1CCCCC1)C2 | inconclusive: 89.1 µM [inhibitor, partial curve, poor fit] | – |
| S=C1NCCc2ccc(Cl)cc2C1c1ccccc1 (configuration not stated) | inconclusive: 56.2 µM [inhibitor, single point] | – |
| CCOc1cccc(-c2nnc(SCC(=O)Nc3cc(OC)cc(OC)c3)n2N)c1 | – | inactive: 45.7% |
| O=C(O)COc1ccc(/C=C/c2ccc3cccc([N+](=O)[O-])c3n2)cc1 | inconclusive: 70.8 µM [inhibitor, partial curve] | – |
| COc1ccc(-c2ccc(/C=C3\C(=O)N(c4ccccc4)N=C3c3ccccc3)o2)c([N+](=O)[O-])c1 | active: 3.55 µM | – |
| FC(F)Oc1ccc(/C=N/c2c(-c3ccc(OC(F)F)cc3)nc3n2CCS3)cc1 | inconclusive: 12.6 µM [inhibitor, full curve] | – |
| CCC(C(=O)OCC(=O)NC(=O)NC(C)(C)C)c1ccccc1 (configuration not stated) | inconclusive: 10 µM [inhibitor, partial curve] | – |
| COc1cc(/C=C2\SC(=S)N(NC(=O)c3ccccc3O)C2=O)ccc1O | inconclusive: 10 µM [inhibitor, full curve] | – |
| CCOC(=O)C1(Cc2cccc(OC)c2)CCCN(Cc2c(C)nn(C(C)C)c2C)C1 (configuration not stated) | inconclusive: 89.1 µM [inhibitor, partial curve, poor fit] | – |
| O=[N+]([O-])c1c(C(Cl)Cl)nn(-c2ccccc2)c1N1CCCC1 | inconclusive: 28.2 µM [inhibitor, partial curve] | – |
| COc1cc(-c2cc(C(=O)Nc3cc(S(=O)(=O)N4CCOCC4)ccc3O)c3ccccc3n2)cc(OC)c1OC | inconclusive: 31.6 µM [inhibitor, partial curve] | – |
| Cc1ccc(NC(=O)c2nc3nccc(C)n3n2)c(C)c1 | – | inactive: 22.6% |
| O=C(Nc1ccc(S(=O)(=O)Nc2nccs2)cc1)c1cc(-c2ccccc2Cl)nc2ccccc12 | inconclusive: 50.1 µM [inhibitor, partial curve] | – |
| COc1cc(C=c2c3ccccc3n3c2cc(-c2ccccc2)[n+]3C)cc(OC)c1OC | inconclusive: 56.2 µM [inhibitor, partial curve, poor fit] | – |
| Clc1ccccc1OCCCCN1CCCCC1 | inconclusive: 44.7 µM [inhibitor, partial curve] | – |
| CC1CCCN(C(=O)c2sc3cc([N+](=O)[O-])ccc3c2Cl)C1 (configuration not stated) | inconclusive: 50.1 µM [inhibitor, partial curve] | – |
| CC(=O)c1ccc(N(CC(=O)NC2CCS(=O)(=O)C2)S(=O)(=O)c2ccc(C)cc2)cc1 (configuration not stated) | – | inactive: 26.9% |
| O=C(Nc1ccccc1N1CCN(c2ccc(F)cc2)CC1)C12CC3CC(CC(C3)C1)C2 | inconclusive: 25.1 µM [inhibitor, single point] | – |
| CCN(CCCNC(=O)CSc1cc(=O)n(CC)c2ccccc12)c1cccc(C)c1 | inconclusive: 17.8 µM [inhibitor, partial curve, poor fit] | – |
| O=C(Nc1ccc(Nc2ccccc2)cc1)Nc1ccccc1Cl | inconclusive: 17.8 µM [inhibitor, full curve] | – |
| CCCC1C(c2ccco2)NC(c2ccco2)CC1(C)O (configuration not stated) | inconclusive: 25.1 µM [inhibitor, partial curve] | – |
| CCC(C)c1ccccc1NC(=O)c1cc(C)no1 (configuration not stated) | – | inactive: 11.7% |
| COC(=O)c1ccc(NC(=O)CSc2ncc3c(n2)-c2cc(Cl)ccc2N(Cc2ccccc2)S3(=O)=O)cc1 | – | inactive: 0.0694% |

| Structure (SMILES) | Potency | activity change, negative = inhibition |
| --- | --- | --- |
| O=C1CSC(=S)N1N=Cc1ccc(Cl)cc1Cl | inconclusive: 39.8 µM [inhibitor, partial curve] | – |
| CC1CCN(CCCCOc2ccccc2[N+](=O)[O-])CC1 | inconclusive: 79.4 µM [inhibitor, single point] | – |
| COc1cc(OC)c(OC)cc1/C=N/NC(=S)NCCN1CCOCC1 | – | inactive: 12.7% |
| COc1ccccc1NS(=O)(=O)c1ccc(O)c(NC(=S)NCC2CCCO2)c1 (configuration not stated) | inconclusive: 14.1 µM [inhibitor, partial curve, poor fit] | – |
| O=C(NC(=S)N1CCN(c2ccc([N+](=O)[O-])cc2Cl)CC1)c1ccco1 | inconclusive: 50.1 µM [inhibitor, partial curve] | – |
| Cc1cccc(NC(c2ccc(O)cc2)c2ccc3ccc(C)nc3c2O)n1 (configuration not stated) | inconclusive: 28.2 µM [inhibitor, partial curve, poor fit] | – |
| CCO[C@H]1OC(C(=O)N2CCN(Cc3ccc4c(c3)OCO4)CC2)=C[C@@H](c2csc3ccccc23)[C@@H]1CCCO | inconclusive: 22.4 µM [inhibitor, full curve] | – |
| COc1cc(/C=C/C(C)=NNc2ccccc2)ccc1O | inconclusive: 50.1 µM [inhibitor, partial curve, poor fit] | – |
| CCN(c1ccccc1)S(=O)(=O)c1ccc(C(=O)N(CCCN(C)C)c2nc3cc4c(cc3s2)OCO4)cc1 | inconclusive: 31.6 µM [inhibitor, partial curve, poor fit] | – |
| COc1cc(OC)c2c(O)c3c(c(-c4c5c(c(O)c6c(OC)cc(OC)cc46)CO[C@@H](C)[C@H]5O)c2c1)[C@H](O)[C@H](C)OC3 | inconclusive: 50.1 µM [inhibitor, partial curve] | – |
| O=C(COc1cccc2cccnc12)N/N=C/c1ccc(O)cc1 | – | inactive: -14.3% |
| Cc1ccccc1Cc1c(C)nc2nc(SCC(=O)NCCc3ccc(Cl)cc3)nn2c1C | – | inactive: 29.9% |
| CSC1=NC(C)(C)C=C(/C=C/c2ccc(Cl)cc2Cl)N1 | inconclusive: 56.2 µM [inhibitor, partial curve, poor fit] | – |
| Cc1ccc(S(=O)(=O)c2nnn3c2nc(N2CCCC2)c2sccc23)cc1 | – | inactive: 23% |
| COc1cc(-c2nnc(SCC3(c4ccc(Br)cc4)OCCO3)o2)cc(OC)c1OC | – | inactive: 20.8% |
| O=C(O)CCN1C(=O)C2C3CC(C2C1=O)C1C(c2ccccc2)c2sc(=O)n(-c4ccccc4)c2SC31 (configuration not stated) | – | inactive: -11.1% |
| COc1ccc(N2CCN(c3oc(COc4ccccc4)nc3C#N)CC2)cc1 | inconclusive: 39.8 µM [inhibitor, single point] | – |
| COc1ccc2[nH]c(=O)c(-c3nnn(-c4ccccc4)n3)cc2c1 | – | inactive: 43.3% |
| CCOC(=O)/C(C#N)=C/c1cn(CCC(=O)O)nc1-c1cccc(Br)c1 | – | inactive: 7.4% |
| Cc1ccc(C2C(C#N)=C(N)SC(N)=C2C#N)cc1 | – | inactive: 8.35% |
| CCOC(=O)c1cnc2ccc(C(=O)OC)cc2c1Nc1cccc(C(=O)O)c1 | – | inactive: 41.6% |
